Consider 2 molecules from patent US20220267438A1 (Janssen / Centocor, published 2022).

The target of assay [1] is T1, human BCMA (B cell maturation antigen, TNFRSF17) on cells (human, UniProt Q02223 1-184).
T1 construct: whole, on cells; Target on H929 or MM.1R GPRC5D knockout cells, K562 cells expressing human BCMA, HEK293 cells of the cell microarray, and BCMA-only lymphoma lines; also called CD269; surface BCMA
T1 sequence (looked up): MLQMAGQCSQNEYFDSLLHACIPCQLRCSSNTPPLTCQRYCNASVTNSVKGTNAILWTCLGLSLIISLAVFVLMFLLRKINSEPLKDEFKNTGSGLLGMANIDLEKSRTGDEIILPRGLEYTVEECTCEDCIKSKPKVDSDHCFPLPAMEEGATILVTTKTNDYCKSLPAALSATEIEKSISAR
The experiment in a line: flow cytometry, H929 GPRC5D-KO cells, 1 hour 37C DRC. Here is the method:
(§1) BGCB463 and BGCB491 were tested against H929 WT, H929 BCMA-KO, H929 GPRC5D-KO, and H929 BCMA/GPRC5D double KO cells in a 1 hour, 37° C. DRC suite binding assay. Results shown in FIGS. 24A-24D, all with a null control (BGCB510).
(In general: A flow cytometer gives signals particle by particle.)

The target of assay [2] is T2, human GPRC5D (G-protein coupled receptor family C group 5 member D) on cells (human, UniProt Q9NZD1 1-345). The experiment in a line: cell-based or functional assay.
T2 sequence (Q9NZD1 whole entry): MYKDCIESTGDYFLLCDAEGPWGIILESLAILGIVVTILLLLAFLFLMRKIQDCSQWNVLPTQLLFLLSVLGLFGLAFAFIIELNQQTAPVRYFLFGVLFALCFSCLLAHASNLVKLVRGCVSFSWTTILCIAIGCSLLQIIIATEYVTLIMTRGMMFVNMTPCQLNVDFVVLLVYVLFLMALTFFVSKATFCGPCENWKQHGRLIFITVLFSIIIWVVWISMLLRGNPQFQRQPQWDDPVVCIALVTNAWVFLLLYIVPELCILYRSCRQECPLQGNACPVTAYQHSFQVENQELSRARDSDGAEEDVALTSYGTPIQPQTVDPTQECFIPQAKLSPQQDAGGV
Assay [3] addresses T1, human BCMA (B cell maturation antigen, …). The experiment in a line: cell-based or functional assay.
Assay [4] concerns the target T3, BCMW37 (recombinant human BCMA antigen) (human, UniProt Q02223 1-54, limits assumed).
T3 construct: also called BCMA BCMW37 chain; human BCMA (SPR antigen)
T3 sequence (looked up): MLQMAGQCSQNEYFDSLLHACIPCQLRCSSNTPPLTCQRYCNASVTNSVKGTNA
The experiment in a line: SPR. For orientation: In SPR one partner is held on a chip, and binding of the other changes the refractive index at the surface.

The target in assay [5] is T4, human CD3 (CD3ε of the TCR/CD3 complex) on primary human pan T cells (human, UniProt P07766).
T4 construct: whole, on cells; On T cells CD3ε stands in the whole TCR/CD3 complex
T4 sequence (P07766 23-207, one chain of several): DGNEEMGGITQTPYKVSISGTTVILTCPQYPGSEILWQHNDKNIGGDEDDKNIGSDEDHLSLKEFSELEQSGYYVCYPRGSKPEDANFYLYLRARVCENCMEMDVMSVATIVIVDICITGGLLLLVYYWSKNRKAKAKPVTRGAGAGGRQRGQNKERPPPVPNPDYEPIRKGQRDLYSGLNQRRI
The experiment in a line: flow cytometry on human Pan-T cells (two donors), 1 hr 37 C, AF647 goat anti-human IgG. Here is the method:
BGCB463 and BGCB491 were tested in a 1 hr, 37° C. DRC Pan-T binding assay. Two human Pan-T cell donors were used, and test molecules had 2 uM starting concentrations with a 1:3 dilution and 11 point DRC. Secondary detecting via Alexa Fluor® 647 AffiniPure Goat Anti-Human IgG (H+L). FACS was performed using Intellicyte Ique Screener plus.

The target in assay [6] is T2, human GPRC5D (G-protein coupled …). The experiment in a line: cell-based or functional assay. The source holds these as a separate data set.
The target of assay [7] is T1, human BCMA (B cell maturation antigen, …). The experiment in a line: cell-based or functional assay. This is another data set of the same source.
Assay [8] shares this target. The experiment in a line: cell-based or functional assay. This is another data set of the same source.
Assay [9] concerns the target T2, human GPRC5D (G-protein coupled …). The experiment in a line: flow cytometry, H929 BCMA-KO cells, 1 hour 37C DRC. As to the method:
as §1

In assay [10] the target is T1, human BCMA (B cell maturation antigen, …). The experiment in a line: flow cytometry on K562 cells expressing human BCMA, 1 hr 37 C, average of Runs 1 and 2 (EC50 AVE). As to the method:
(§2) FIGS. 9A-E. BGCB463 (circles) or negative control B23B251 (triangles) were all incubated with K562 cells expressing human GPRC5D (FIG. 9A), human BCMA (FIG. 9B), cynomolgus GPRC5D (FIG. 9C) or cynomolgus BCMA (FIG. 9D) for 1 hr at 37° C. at a starting concentration of 2 μM. After secondary detection with AF647-anti-human IgG, the MFI signal was analyzed to generate an EC₅₀ and EC₉₀ (FIG. 9E). Data are representative of two independent experiments.
The GPRC5D (i.e., GC5B680) and BCMA binding arms were assessed for cross-reactivity to cynomolgus monkey as part of the BGCB463 molecule, which uses the identical binding arms as BGCB491. Cross reactivity to cynomolgus monkeys was profiled for both target-binding scFv arms using FACS-based cell binding at 37° C. for 1 hour with K562 stably expressing human or cynomolgus monkey GPRC5D or BCMA. The cell-based EC₅₀ value for the GC5B680 scFv arm was approximately 30 nM against human GPRC5D-expressing cells and about 10-fold weaker (approximately 400 nM) on cynomolgus monkey GPRC5D-expressing cells.

Assay [11] shares this target. The experiment in a line: flow cytometry, MM.1R GPRC5D KO cells, 1 h 37C; average of runs.
Assay [12] deals with T2, human GPRC5D (G-protein coupled …). The experiment in a line: flow cytometry on K562 cells expressing human GPRC5D, 1 hr 37 C, Run 1. Here is the method: as §2

B1: BGCB491 (other)
heavy: QVQLQQSGPRLVRPSQTLSLTCAISGDSVFNNNAAWSWIRQSPSRGLEWLGRTYYRSKWLYDYAVSVKSRITVNPDTSRNQFTLQLNSVTPEDTALYYCARGYSSSFDYWGQGTLVTVSSASTKGPSVFPLAPSSKSTSGGTAALGCLVKDYFPEPVTVSWNSGALTSGVHTFPAVLQSSGLYSLSSVVTVPSSSLGTQTYICNVNHKPSNTKVDKKVEPKSCDKTHTCPPCPAPEAAGGPSVFLFPPKPKDTLMISRTPEVTCVVVSVSHEDPEVKFNWYVDGVEVHNAKTKPREEQYNSTYRVVSVLTVLHQDWLNGKEYKCKVSNKALPAPIEKTISKAKGQPREPQVYTLPPSREEMTKNQVSLSCAVKGFYPSDIAVEWESNGQPENNYKTTPPVLDSDGSFFLVSKLTVDKSRWQQGNVFSCSVMHEALHNRFTQKSLSLSPGKGGGGSGGGGSGGGGSGGGGS[letters of about 100 residues not shown]QFPHTFGQGTKLEIKGGSEGKSSGSGSESKSTGGSQVTLKESGPVLVKPTETLTLTCTVSGFSLTNIRMSVSWIRQPPGKALEWLAHIFSNDEKSYSTSLKSRLTISRDTSKSQVVLTLTNVDPVDTATYYCARMRLPYGMDVWGQGTTVTVSS
light: QSALTQPASVSGSPGQSITISCTGTSSNIGTYKFVSWYQQHPDKAPKVLLYEVSKRPSGVSSRFSGSKSGNTASLTISGLQAEDQADYHCVSYAGSGTLLFGGGTKLTVLGQPKAAPSVTLFPPSSEELQANKATLVCLISDFYPGAVTVAWKADSSPVKAGVETTTPSKQSNNKYAASSYLSLTPEQWKSHRSYSCQVTHEGSTVEKTVAPTECS
chain: EIVLTQSPGTLSLSPGERATLSCRASQSISSSFLTWYQQKPGQAPRLLIYGASSRATGIPDRFSGGGSGTDFTLTISRLEPEDFAVYYCQHYGSSPMYTFGQGTKLEIKGGSEGKSSGSGSESKSTGGS[letters of about 100 residues not shown]DEGYSSGHYYGMDVWGQGTTVTVSSEPKSSDKTHTCPPCPAPEAAGGPSVFLFPPKPKDTLMISRTPEVTCVVVSVSHEDPEVKFNWYVDGVEVHNAKTKPREEQYNSTYRVVSVLTVLHQDWLNGKEYKCKVSNKALPAPIEKTISKAKGQPREPQVYTLPPSREEMTKNQVSLWCLVKGFYPSDIAVEWESNGQPENNYKTTPPVLDSDGSFFLYSKLTVDKSRWQQGNVFSCSVMHEALHNHYTQKSLSLSPGK
notes: Trispecific IgG1 antibody (L234A, L235A, D265S); Heavy chain 1 = anti-CD3 (CD3B376) Fab heavy chain, hole and RF mutations, with C-terminal anti-GPRC5D scFv (GC5B680); Heavy chain 2 = anti-BCMA scFv (BCMB519) - Fc knob; also called JNJ-79635322; BCMA×GPRC5D×CD3 trispecific mAb
The EC50 is the midpoint of the concentration-response curve. A high value points to lower potency in that assay. In general, Kd refers to a measure of binding affinity in units of concentration. The term EC50 (read off the curve) denotes the concentration giving half of the maximal effect. The molecule B1 displayed a 50% effective concentration (EC50) in assay [1] of 210 nM. Besides, in [2], the “T-cell activation EC50, 72 hrs, H929-BCMA KO” value was 3.11 nM and the “T-cell activation EC50, 96 hrs, H929-BCMA KO” value turned out to be 3.46 nM. Also, in [3], the “T-cell activation EC50, 72 hrs, H929-GPRC5D KO” value amounted to 0.52 nM and the “T-cell activation EC50, 96 hrs, H929-GPRC5D KO” value turned out to be 0.48 nM. Also, the Kd in assay [4] is 0.212 nM. The “EC50 (read off the curve)” value in [5] is around 200 nM. Besides, in assay [6], the “Cytotoxicity EC50, 72 hrs, H929-BCMA KO” value stood at 4.52 nM and the “Cytotoxicity EC50, 96 hrs, H929-BCMA KO” value came out at 2.76 nM. In addition, in assay [7], the “Cytotoxicity EC50, 72 hrs, H929-GPRC5D KO” value came out at 0.322 nM and the “Cytotoxicity EC50, 96 hrs, H929-GPRC5D KO” value stood at 0.226 nM. In [8], the “Cytotoxicity EC50, Granta-519, 72 hours” value is 8.58 nM; the “Cytotoxicity EC50, Ramos, 72 hours” value is 2.81 nM; the “T-cell activation EC50, Granta-519, 72 hours” value was determined as 1.64 nM; the “T-cell activation EC50, Ramos, 72 hours” value worked out at 1.39 nM. In assay [9], this molecule came in with an EC50 of 3180 nM.

B2: BGCB463 (other)
heavy: QVQLQQSGPRLVRPSQTLSLTCAISGDSVFNNNAAWSWIRQSPSRGLEWLGRTYYRSKWLYDYAVSVKSRITVNPDTSRNQFTLQLNSVTPEDTALYYCARGYSSSFDYWGQGTLVTVSSASTKGPSVFPLAPSSKSTSGGTAALGCLVKDYFPEPVTVSWNSGALTSGVHTFPAVLQSSGLYSLSSVVTVPSSSLGTQTYICNVNHKPSNTKVDKKVEPKSCDKTHTCPPCPAPEAAGGPSVFLFPPKPKDTLMISRTPEVTCVVVSVSHEDPEVKFNWYVDGVEVHNAKTKPREEQYNSTYRVVSVLTVLHQDWLNGKEYKCKVSNKALPAPIEKTISKAKGQPREPQVYTLPPSREEMTKNQVSLSCAVKGFYPSDIAVEWESNGQPENNYKTTPPVLDSDGSFFLVSKLTVDKSRWQQGNVFSCSVMHEALHNRFTQKSLSLSPGK
light: QSALTQPASVSGSPGQSITISCTGTSSNIGTYKFVSWYQQHPDKAPKVLLYEVSKRPSGVSSRFSGSKSGNTASLTISGLQAEDQADYHCVSYAGSGTLLFGGGTKLTVLGQPKAAPSVTLFPPSSEELQANKATLVCLISDFYPGAVTVAWKADSSPVKAGVETTTPSKQSNNKYAASSYLSLTPEQWKSHRSYSCQVTHEGSTVEKTVAPTECS
chain: [letters of about 100 residues not shown]QFPHTFGQGTKLEIKGGSEGKSSGSGSESKSTGGSQVTLKESGPVLVKPTETLTLTCTVSGFSLTNIRMSVSWIRQPPGKALEWLAHIFSNDEKSYSTSLKSRLTISRDTSKSQVVLTLTNVDPVDTATYYCARMRLPYGMDVWGQGTTVTVSSEPKSSDKTHTCPPCPAPEAAGGPSVFLFPPKPKDTLMISRTPEVTCVVVSVSHEDPEVKFNWYVDGVEVHNAKTKPREEQYNSTYRVVSVLTVLHQDWLNGKEYKCKVSNKALPAPIEKTISKAKGQPREPQVYTLPPSREEMTKNQVSLWCLVKGFYPSDIAVEWESNGQPENNYKTTPPVLDSDGSFFLYSKLTVDKSRWQQGNVFSCSVMHEALHNHYTQKSLSLSPGKGGSEGKSSGSGSESKSTGGSEIVLTQSPGTLSLSPGERATLSCRASQSISSSFLTWYQQKPGQAPRLLIYGASSRATGIPDRFSGGGSGTDFTLTISRLEPEDFAVYYCQHYGSSPMYTFGQGTKLEIKGGSEGKSSGSGSESKSTGGS[letters of about 100 residues not shown]DEGYSSGHYYGMDVWGQGTTVTVSS
notes: Trispecific IgG1 antibody (L234A, L235A, D265S); Heavy chain 1 = anti-CD3 (CD3B376) Fab heavy chain with hole and RF mutations; also called BGCB463.003; BGCB463.004
For B2, it took 504 nM to reach a half-maximal effect in assay [1] (EC50). For the same molecule, in assay [2], the “T-cell activation EC50, 72 hrs, H929-BCMA KO” value was 0.517 nM and the “T-cell activation EC50, 96 hrs, H929-BCMA KO” value worked out at 0.445 nM. In addition, in assay [3], the “T-cell activation EC50, 72 hrs, H929-GPRC5D KO” value stood at 3.14 nM and the “T-cell activation EC50, 96 hrs, H929-GPRC5D KO” value came out at 3.51 nM. This molecule also gave an EC50 in assay [10] of 147 nM. Further, the equilibrium dissociation constant (Kd) in [4] amounted to 0.844 nM. Also, the “EC50 (read off the curve)” value in [5] was around 100 nM. This molecule yielded an EC50 in assay [11] of 316 nM. Moreover, in [6], the “Cytotoxicity EC50, 72 hrs, H929-BCMA KO” value amounted to 0.539 nM and the “Cytotoxicity EC50, 96 hrs, H929-BCMA KO” value stood at 0.269 nM. Further, in assay [7], the “Cytotoxicity EC50, 72 hrs, H929-GPRC5D KO” value was 2.06 nM and the “Cytotoxicity EC50, 96 hrs, H929-GPRC5D KO” value was found to be 1.58 nM. In assay [8], the “Cytotoxicity EC50, Granta-519, 72 hours” value stood at 81 nM; the “T-cell activation EC50, Granta-519, 72 hours” value amounted to 3.3 nM; the “T-cell activation EC50, Ramos, 72 hours” value is 17.6 nM. In assay [12], this molecule returned an EC50 of 12.5 nM. This molecule gave a 50% effective concentration (EC50) in assay [9] of 11700 nM.
